# According to PubChem BioAssay AID504333 (National Center for Advancing Translational Sciences (NCATS), 2011):
# The campaign covered roughly 360,000 compounds. About 16,000 (4.4%) were called active. Inconclusive means that the source gave no clear call. Such entries were picked first, then a sample of the others. Calls come from the whole dose curve; as a rule, active = well fitted inhibition curve with a large enough effect; inconclusive = small, poorly fitted or top-dose-only effect; inactive = no such curve, though single readings can be large or run the other way. Potencies of inconclusive entries are doubtful fits and often do not repeat.
# Target: Bromodomain adjacent to zinc finger domain protein 2B (Homo sapiens) (UniProt Q9UIF8)
# Assay: qHTS Assay for Inhibitors of BAZ2B; note: nearly all actives have a fitted effect of over 60% in size
# Conditions: AlphaScreen BAZ2B-H3K14Ac peptide displacement; activity change, negative = inhibition: at 114 µM (top of the series) unless noted
# Summary of the method: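 Multi-concentration screen (max 110 uM) measuring displacement of acetylated histone H3 peptide from BAZ2B by AlphaScreen, using 50 nM protein, 50 nM peptide and 10 ug/mL streptavidin donor plus Ni-chelate acceptor beads.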
# % is set by controls: 0 for no effect and ±100 for the full control effect; potency is the fitted concentration of half-maximal effect; tags give direction and shape of the fitted curve.
# UniProt Q9UIF8, sequence (Q9UIF8 whole entry, looked up, the tested form may be a part): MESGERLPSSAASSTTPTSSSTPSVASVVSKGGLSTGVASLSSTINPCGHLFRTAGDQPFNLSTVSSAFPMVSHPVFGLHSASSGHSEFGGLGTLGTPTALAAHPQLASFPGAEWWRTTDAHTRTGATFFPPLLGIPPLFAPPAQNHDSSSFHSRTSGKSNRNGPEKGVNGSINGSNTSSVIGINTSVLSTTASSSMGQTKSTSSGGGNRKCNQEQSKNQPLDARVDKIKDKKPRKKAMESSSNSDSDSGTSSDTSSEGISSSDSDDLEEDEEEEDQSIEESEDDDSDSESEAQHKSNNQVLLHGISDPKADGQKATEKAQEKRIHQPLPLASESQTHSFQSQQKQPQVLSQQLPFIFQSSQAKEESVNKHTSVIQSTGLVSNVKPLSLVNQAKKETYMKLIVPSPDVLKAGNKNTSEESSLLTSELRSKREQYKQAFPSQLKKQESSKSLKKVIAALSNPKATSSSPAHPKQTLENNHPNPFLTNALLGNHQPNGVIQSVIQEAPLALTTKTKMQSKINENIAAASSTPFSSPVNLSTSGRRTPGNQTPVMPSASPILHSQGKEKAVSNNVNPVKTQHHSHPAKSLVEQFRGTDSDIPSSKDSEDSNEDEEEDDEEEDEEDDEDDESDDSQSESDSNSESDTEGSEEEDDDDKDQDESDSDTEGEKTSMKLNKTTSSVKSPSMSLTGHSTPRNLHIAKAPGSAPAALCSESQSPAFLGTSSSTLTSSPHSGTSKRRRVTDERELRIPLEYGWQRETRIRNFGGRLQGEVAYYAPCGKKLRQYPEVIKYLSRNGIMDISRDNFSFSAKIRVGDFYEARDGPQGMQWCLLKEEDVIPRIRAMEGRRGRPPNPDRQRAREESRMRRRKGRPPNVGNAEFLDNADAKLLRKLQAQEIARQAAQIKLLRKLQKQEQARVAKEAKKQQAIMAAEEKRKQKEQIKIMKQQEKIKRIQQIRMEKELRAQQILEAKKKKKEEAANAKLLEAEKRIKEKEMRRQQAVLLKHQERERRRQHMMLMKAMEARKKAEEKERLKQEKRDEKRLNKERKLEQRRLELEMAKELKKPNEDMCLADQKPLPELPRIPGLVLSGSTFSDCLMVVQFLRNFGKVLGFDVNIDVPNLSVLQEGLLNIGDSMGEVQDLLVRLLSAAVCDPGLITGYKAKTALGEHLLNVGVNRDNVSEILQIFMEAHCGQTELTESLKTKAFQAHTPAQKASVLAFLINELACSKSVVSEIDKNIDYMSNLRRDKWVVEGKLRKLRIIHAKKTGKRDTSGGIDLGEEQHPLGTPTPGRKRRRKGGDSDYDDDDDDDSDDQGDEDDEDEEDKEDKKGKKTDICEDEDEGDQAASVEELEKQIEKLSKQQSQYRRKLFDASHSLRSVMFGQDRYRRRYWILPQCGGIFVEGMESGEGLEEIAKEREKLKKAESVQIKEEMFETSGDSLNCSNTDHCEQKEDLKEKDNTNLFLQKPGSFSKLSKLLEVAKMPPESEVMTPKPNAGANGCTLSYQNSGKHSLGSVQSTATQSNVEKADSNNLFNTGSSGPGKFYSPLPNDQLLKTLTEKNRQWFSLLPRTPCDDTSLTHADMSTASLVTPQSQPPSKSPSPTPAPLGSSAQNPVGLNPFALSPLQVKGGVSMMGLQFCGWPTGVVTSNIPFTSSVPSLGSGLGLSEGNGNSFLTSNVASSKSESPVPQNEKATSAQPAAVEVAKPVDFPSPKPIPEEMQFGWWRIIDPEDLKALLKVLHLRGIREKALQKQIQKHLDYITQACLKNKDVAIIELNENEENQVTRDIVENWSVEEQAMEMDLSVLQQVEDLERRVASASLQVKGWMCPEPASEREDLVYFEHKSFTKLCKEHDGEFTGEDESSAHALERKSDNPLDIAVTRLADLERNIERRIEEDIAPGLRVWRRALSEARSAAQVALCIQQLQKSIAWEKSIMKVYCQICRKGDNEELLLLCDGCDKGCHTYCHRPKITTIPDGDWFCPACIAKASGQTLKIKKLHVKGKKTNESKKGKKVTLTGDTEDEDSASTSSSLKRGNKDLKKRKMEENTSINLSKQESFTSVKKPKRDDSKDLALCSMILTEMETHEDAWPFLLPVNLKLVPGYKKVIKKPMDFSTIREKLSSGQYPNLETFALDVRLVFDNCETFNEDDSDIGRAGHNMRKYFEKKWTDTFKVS
SMILES,Potency,"activity change, negative = inhibition"
Cc1ccc2oc(C(=O)N3CCN(Cc4nccn4C)CC3)c(C)c2c1,"inconclusive: 70.8 µM [inhibitor, partial curve, poor fit]",
Brc1ccc(-c2ncc(-c3ccccc3)cn2)cc1,"inconclusive: 89.1 µM [inhibitor, single point]",
COc1ccc(N2CCN(C(=O)COC(=O)Cc3ccc(F)cc3)CC2)cc1,,inactive: -37.5%
COc1ccc2ccc(O)c(CN(C)CC(=O)Nc3ccccc3C(F)(F)F)c2c1,,inactive: -12.6%
CCOc1ccc(-c2cc(C(=O)NCCCn3ccnc3)c3cc(Br)ccc3n2)cc1,"inconclusive: 70.8 µM [inhibitor, partial curve]",
O=C(C[n+]1ccccc1)N/N=C/c1ccccc1[N+](=O)[O-],"inconclusive: 79.4 µM [inhibitor, partial curve]",
O=C(Nc1cccc(NC(=O)N2CCN(c3ccccc3)CC2)c1)N1CCN(c2ccccc2)CC1,"inconclusive: 39.8 µM [inhibitor, partial curve]",
CC(=O)NC1C(=O)N(CCN2CCOCC2)c2ccc(C)cc21 (stereo not given),active: 5.01 µM,
CCN1CCc2c(sc(NC(=S)NC(=O)c3ccccc3)c2C#N)C1,"inconclusive: 89.1 µM [inhibitor, single point]",
CC(Oc1ccc(Br)cc1)C(=O)NCC(C)(C)N1CCOCC1 (stereo not given),,inactive: -8.28%
CC(C)(C)C(=O)OCc1cn(-c2ccccc2)nn1,,inactive: -3.98%
O=C(CCN1CCC(c2ccccc2)C1)c1ccc2c(c1)OCCO2 (stereo not given),"inconclusive: 79.4 µM [inhibitor, single point]",
CCOc1ccc(CNS(=O)(=O)c2ccc3[nH]c4c(c3c2)CCCC4)cc1OC,active: 44.7 µM,
CC(=O)c1ccc(NC(=O)CSc2nc(=O)cc(N)n2-c2ccccc2)cc1,,inactive: -37%
Cc1ccc(OC(=O)c2ccccc2C(=O)OCC(F)(F)C(F)F)cc1,"inconclusive: 6.31 µM [inhibitor, single point]",
Cc1ccc(Cl)cc1N1CCN(C(=O)c2cc(S(=O)(=O)N3CCC(C)CC3)cn2C)CC1,,inactive: -27%
C=CCc1cc(Cl)ccc1OCCOCCNC(C)CC (stereo not given),active: 50.1 µM,
CCOC(=O)c1sc(N/N=C/c2ccc(N(C)C)cc2)nc1C,"inconclusive: 50.1 µM [inhibitor, partial curve]",
Cc1cccc2nc(COc3ccc(Cl)c4cccnc34)cn12,"inconclusive: 56.2 µM [inhibitor, partial curve]",
Cc1cc(C)c(S(=O)(=O)N2CCCOC2CNC(=O)C(=O)NCCCn2ccnc2)c(C)c1 (stereo not given),"inconclusive: 89.1 µM [inhibitor, single point]",
Cc1noc(NS(=O)(=O)c2ccc(NC(=O)c3oc4ccc(Cl)cc4c3C)cc2)c1C,"inconclusive: 44.7 µM [inhibitor, partial curve]",
CCCCCC(=O)Nc1cccc(C2=NOC3(C2)C[C@H](C(N)=O)N(C(=O)CC#N)C3)c1 (stereo not given in full),active: 56.2 µM,
Cc1[nH][nH]c(=O)c1C(c1ccc(-c2ccc(F)cc2)o1)c1c(C)[nH][nH]c1=O,"inconclusive: 63.1 µM [inhibitor, partial curve]",
CC(C)c1ccc2c(c1)C1Cc3ccccc3C1N2 (stereo not given),"inconclusive: 56.2 µM [inhibitor, partial curve, poor fit]",

SMILES,Potency,"activity change, negative = inhibition"
COc1ccc(N2CCN(c3nc4ccccc4n3CC(=O)c3ccccc3)CC2)cc1,"inconclusive: 79.4 µM [inhibitor, single point]",
COc1ccc(N(CCOc2ccccc2)S(=O)(=O)c2ccccc2)cc1,,inactive: 25.4%
Nc1ccn([C@@H]2O[C@H](CO)[C@@H](O)[C@@H]2O)c(=O)n1,"inconclusive: 89.1 µM [inhibitor, single point]",
Cc1ccccc1-n1nnnc1SC(C)C(=O)Nc1ccc(N2CCN(C)CC2)cc1 (stereo not given),"inconclusive: 39.8 µM [inhibitor, partial curve]",
Cc1ccc(CN2CCN(/N=C/c3cccs3)CC2)cc1,active: 44.7 µM,
Cn1c(=O)c2c(nc(SCC(=O)Nc3ccc(OC(F)(F)F)cc3)n2Cc2cccc(C(F)(F)F)c2)n(C)c1=O,,inactive: -16.5%
O=C(OCCOc1ccccc1)c1n[nH]c2ccccc12,,inactive: 1.18%
COc1cccc(/C=N/NC(=O)C(=O)N2CCCCCC2)c1O,active: 79.4 µM,
COc1ccccc1NC(=O)N1CC(=O)Nc2sc3c(c2C1c1ccccc1)CCCC3 (stereo not given),"inconclusive: 89.1 µM [inhibitor, single point]",
COc1ccc(S(=O)(=O)N2CCOC2CNC(=O)C(=O)NCc2ccco2)cc1C (stereo not given),"inconclusive: 79.4 µM [inhibitor, single point]",
CC1(C)Nc2ccc(O)cc2-c2c1ssc2=S,active: 44.7 µM,
O=S(=O)(Nc1ccc(-c2csc(-c3ccccc3)n2)cc1)c1ccccc1,"inconclusive: 89.1 µM [inhibitor, single point]",
CCCC(=O)NC(c1ccccc1)c1ccc2cccnc2c1O (stereo not given),active: 25.1 µM,
COc1ccc(Cl)cc1NC(=O)CN(C)C(=O)c1cc2ccccc2cc1O,"inconclusive: 100 µM [inhibitor, single point]",
CCOC(=O)C(CC)n1cnc2c(nnn2-c2ccc(OC)cc2)c1=O (stereo not given),,inactive: 12.4%
C[C@@H]1Cc2c(O)c(O)cc(O)c2C(=O)O1,"inconclusive: 89.1 µM [inhibitor, single point]",
O=C(CSC1=NS(=O)(=O)c2cc(Cl)ccc2N1)NCCc1ccccc1,"inconclusive: 89.1 µM [inhibitor, single point]",
CCN(c1ccc(NC(=O)CSCc2c(C)noc2C)cc1)C(C)C,"inconclusive: 50.1 µM [inhibitor, partial curve]",
CC(C)CC(=O)N1CCN(Cc2ccc(C(F)(F)F)cc2)CC1,"inconclusive: 89.1 µM [inhibitor, single point]",
COc1ccc(C(=O)CCC(=O)NC2=NCCS2)cc1,"inconclusive: 56.2 µM [inhibitor, partial curve]",
O=S(=O)(Nc1ncccn1)c1ccccc1,"inconclusive: 89.1 µM [inhibitor, single point]",
COc1cc(C(=O)Oc2cccc(C(=S)N3CCOCC3)c2)cc(OC)c1OC,"inconclusive: 79.4 µM [inhibitor, single point]",
O=C1OCCC1Sc1nnc(-c2ccc(O)cc2)o1 (stereo not given),,inactive: -4.46% [at 57.1 µM]
Cc1ccc(OC(=O)c2cc(-c3ccccc3)nc3ccc(C)cc23)cc1,,inactive: 17.8%

SMILES,Potency,"activity change, negative = inhibition"
C=CCn1c(=S)[nH]c2scc(-c3ccco3)c2c1=O,"inconclusive: 79.4 µM [inhibitor, partial curve]",
COc1ccc(OC)c(NC(=S)N2CCC(C(O)(c3ccccc3)c3ccccc3)CC2)c1,"inconclusive: 20 µM [inhibitor, full curve]",
CCc1nc2sc3ccccc3c(=O)c2c(=O)n1Cc1ccco1,"inconclusive: 89.1 µM [inhibitor, single point]",
c1ccc(Nc2nc(NCc3ccco3)c3ccccc3n2)cc1,"inconclusive: 39.8 µM [inhibitor, partial curve]",
CCOc1ccc(CCNC(=O)CCCc2nnc3n(CC(C)C)c(=O)c4sccc4n23)cc1,,inactive: -2.72%
COc1ccccc1Nc1nc(N)nc(CN2CCN(c3ccccc3)CC2)n1,active: 50.1 µM,
COc1cc(/C=C/C(=O)c2ccc(NS(=O)(=O)c3ccc(C)cc3)cc2)cc(OC)c1O,"inconclusive: 39.8 µM [inhibitor, full curve, poor fit]",
CCOc1ccc(/C=C/C(O)=C2/C(=O)NC3(C)CC2c2ccccc2O3)cc1OC (stereo not given),"inconclusive: 79.4 µM [inhibitor, single point]",
CCOC(=O)c1cc(S(=O)(=O)Nc2ccc(OC)c(Cl)c2)[nH]n1,active: 56.2 µM,
COC(=O)c1ccc(-c2ccc(/C=N/NC(=O)CC3(C)OCCCO3)o2)cc1,,inactive: -0.82%
Cc1ccc(NC(=O)C2C3C=CC4(CN(Cc5cccnc5)C(=O)C24)O3)cc1F (stereo not given),,inactive: 0.0535%
COc1ccc(CN2CCN(C(=O)C3CCC(CNS(=O)(=O)c4ccc(C)cc4)CC3)CC2)c(OC)c1OC (stereo not given),"inconclusive: 79.4 µM [inhibitor, single point]",
CC(=O)NC(c1ccco1)c1cc(Br)c2cccnc2c1O (stereo not given),active: 28.2 µM,
O=C(Cc1ccc(S(=O)(=O)N2CCOCC2)s1)Nc1ccccc1N1CCCC1,"inconclusive: 79.4 µM [inhibitor, single point]",
O=C(O)c1cc(-c2ccc(/C=c3\sc4nc5ccc(Br)cc5n4c3=O)o2)ccc1Cl,active: 17.8 µM,
CCOC(=O)c1ccc(NC(=O)CSc2nccn2C)cc1,"inconclusive: 89.1 µM [inhibitor, single point]",
O=C(NNS(=O)(=O)c1cccc(Cl)c1)c1cc(-c2ccc(F)cc2)nc2ccccc12,"inconclusive: 89.1 µM [inhibitor, single point]",
O=C(Nc1nnc(SCc2c(Cl)cccc2Cl)s1)C1CC(=O)N(c2ccc3c(c2)OCCO3)C1 (stereo not given),"inconclusive: 39.8 µM [inhibitor, partial curve]",
COc1cccc(-c2nc(SCC(=O)Nc3ccc4c(c3)OCO4)c(-c3ccccc3)[nH]2)c1,"inconclusive: 17.8 µM [inhibitor, full curve]",
CN(C)S(=O)(=O)N(CC(=O)NCCSCc1ccccc1Cl)c1ccccc1,,inactive: -3.85%
CC(C)(C)c1ccc(OCCCNCc2ccccc2)cc1,"inconclusive: 89.1 µM [inhibitor, single point]",
CC(C)CC(=O)NC(c1ccccc1Cl)c1c(O)ccc2ccccc12 (stereo not given),"inconclusive: 89.1 µM [inhibitor, single point]",
